Values joined by “and” are separate entries in the source; they are usually repeats but may differ in a detail not shown here. Equal entries are not always repeated.
Legend:
[1] = molecular target: recombinant human IL-1 (human); assay: cell-based or functional assay
[2] = molecular target: T1, recombinant human IL-1β (human, UniProt P01584 117-269); assay: cell-based or functional assay
[3] = molecular target: T1, recombinant human IL-1β; assay: inferred by the filing from the IC50 in the 293-NFκB luciferase reporter assay with 5 pM human IL-1β, not a direct binding assay

IL-1-dependent production of IL-6 by MRC5 cells; fold against IL1RI.Fc [1] | IL-1-dependent production of IL-6 by MRC5 cells; highest IL-1 concentration blocked by 10 nM Trap [1] | serum IL-6 in C57BL/6 mice 2 h after rhIL-1β (mouse IL-6 ELISA) (fold molar excess) [2] | IC50, luciferase expression in 293-NFκB reporter cells with 5 pM human IL-1β [2] | Kd [3] | Binder
100 fold | 3 nM | 50 and 150 |  |  | IL-1 Trap 1SC569 (Fc fusion) SERCDDWGLDTMRQIQVFEDEPARIKCPLFEHFLKFNYSTAHSAGLTLIWYWTRQDRDLEEPINFRLPENRISKEKDVLWFRPTLLNDTGNYTCMLRNTTYCSKVAFPLEVVQKDSCFNSPMKLPVHKLYIEYGIQRITCPNVDGYFPSSVKPTITWYMGCYKIQNFNNVIPEGMNLSFLIALISNNGNYTCVVTYPENGRTFHLTRTLTVKVVGSPKNAVPPVIHSPNDHVVYEKEPGEELLIPCTVYFSFLMDSRNEVWWTIDGKKPDDITIDVTINESISHSRTEDETRTQILSIKKVTSEDLKRSYVCHARSAKGEVAKAAKVKQKVPAPRYTVSGGAPMLSEADKCKEREEKIILVSSANEIDVRPCPLNPNEHKGTITWYKDDSKTPVSTEQASRIHQHKEKLWFVPAKVEDSGHYYCVVRNSSYCLRIKISAKFVENEPNLCYNAQAIFKQKLPVAGDGGLVCPYMEFFKNENNELPKLQWYKDCKPLLLDNIHFSGVKDRLIVMNVAEKHRGNYTCHASYTYLGKQYPITRVIEFITLEENKPTRPVIVSPANETMEVDLGSQIQLICNVTGQLSDIAYWKWNGSVIDEDDPVLGEDYYSVENPANKRRSTLITVLNISEIESRFYKHPFTCFAKNTHGIDAAYIQLIYPVTNSG[not shown - human IgG1 Fc]
 |  |  | 32 pM | ~0.03 nM | Human IL-1 Trap 1649 (Fc fusion, Entry as encoded; The Cys to Gly change is already part of the entry) SERCDDWGLDTMRQIQVFEDEPARIKCPLFEHFLKFNYSTAHSAGLTLIWYWTRQDRDLEEPINFRLPENRISKEKDVLWFRPTLLNDTGNYTCMLRNTTYCSKVAFPLEVVQKDSCFNSPMKLPVHKLYIEYGIQRITCPNVDGYFPSSVKPTITWYMGCYKIQNFNNVIPEGMNLSFLIALISNNGNYTCVVTYPENGRTFHLTRTLTVKVVGSPKNAVPPVIHSPNDHVVYEKEPGEELLIPCTVYFSFLMDSRNEVWWTIDGKKPDDITIDVTINESISHSRTEDETRTQILSIKKVTSEDLKRSYVCHARSAKGEVAKAAKVKQKVPAPRYTVHTGAARSCRFRGRHYKREFRLEGEPVALRCPQVPYWLWASVSPRINLTWHKNDSARTVPGEEETRMWAQDGALWLLPALQEDSGTYVCTTRNASYCDKMSIELRVFENTDAFLPFISYPQILTLSTSGVLVCPDLSEFTRDKTDVKIQWYKDSLLLDKDNEKFLSVRGTTHLLVHDVALEDAGYYRCVLTFAHEGQQYNITRSIELRIKKKKEETIPVIISPLKTISASLGSRLTIPCKVFLGTGTPLTTMLWWTANDTHIESAYPGGRVTEGPRQEYSENNENYIEVPLIFDPVTREDLHMDFKCVVHNTLSFQTLRTTVKEASSTFSG[not shown - human IgG1 Fc]

From patent US20030143697A1 (published 2003)
